According to the supplement of paper PMC3724861:
This is one part of the list.

Tested on: T1, Caupolican (Caup) homeodomain DNA-binding domain
T1 sequence: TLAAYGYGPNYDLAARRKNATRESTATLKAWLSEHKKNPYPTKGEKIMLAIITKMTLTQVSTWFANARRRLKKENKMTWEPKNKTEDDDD
Experiment: PBM E-score (8-mer, recovered from the published 9-mer minima) (E-score (dimensionless, -0.5 to 0.5)); Drosophila protein; higher = stronger relative binding preference, active = 0.31 or more
Summary of the method: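 Caup's homeodomain DNA-binding domain (residues 214-303) was made by in vitro transcription and translation and applied at 100 nM to custom-designed protein binding microarrays. Each value is an enrichment score that gives relative binding preference for a short DNA word, with higher meaning stronger. The 8-mer values were recovered from published 9-mer scores, each of which was the minimum of its two constituent 8-mer scores. A cutoff of 0.31 marks candidate sites.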

PBM E-score, inactive:
CGTACGCC -0.0606, GGGAGCTA -0.114, ATGAAGAC -0.00671, TAGCTGGA -0.0238, AACTTTAA 0.0347, GAATGTCC 0.145, ATGCGTGC -0.0483, AAAAATTA 0.0726, CTGTCACA 0.167, GAAAGCCA -0.151, AATGTCCG 0.165, AGACTGGA -0.0546, CATCAACA 0.204, CACATGTG 0.18, CAGGAGTC -0.0753, CACAAGGC 0.0776, CCTGGCTA -0.0965, AGAAATGG -0.00893, ACTGAAAT 0.0189, CCCTCAGG -0.185, AGTTACTG 0.0709, AGTATTAC 0.221, ACTCGGGA -0.117, CGATCCGC -0.199, AACGTGGC -0.118, CAACCGGA -0.0434, CAATCTAG 0.0281, AAGCCCAA -0.0527, CACAGAGA 0.0804, GAATATTC 0.0294, GCGTGACC -0.172, CACTAACG -0.0323, CCTTCCTC -0.211, GACCTGCC -0.199, CGGTAAAA 0.0447, GAAGCAGA -0.0258, AAACAGCT 0.028, GAAGCCAC -0.129, GATGAATA 0.159, CCCGTCAA -0.139, AGTAGACA 0.17, CATTGCCG -0.0521, CACACTTC 0.0178, AGATGATA 0.12, AACCTAAA 0.0122, AGCAGGAG -0.113, ATTGTGTA 0.283, AGAGTCAG 0.00815, CCACCACA -0.0806, AACAAAGG 0.132, CCGACTTA -0.0361, GTGTCGAA 0.241, ACTTAGCC -0.032, AATGTGTG 0.142, CGCTGTTA 0.0663, ACATATCT 0.303, CTTTTTGA -0.00712, CCTTGACA 0.189, AGTGGGTG -0.00205, AACCCTGG -0.105, GTTCTTGA 0.0957, GCGTCGAC -0.0367, CATCCATC 0.0368, CACGAATC 0.0584, CGTATACA 0.288, GAGCCCTA -0.194, ATCGTTCG 0.0642, ATTAGTAA 0.206, AATCCTGA 0.012, CCCTTACA 0.152, CCGAGTGC -0.154, GACGTTCA 0.00148, GCGGCCCA -0.289, TGCTTTAA 0.0787, ATTGGGAA 0.0708, CTATTCCC -0.0582, GGAAAACC -0.102, GCCCGTCA -0.226, CTACATTC 0.119, GCTACACA 0.185, CTGGAAAC 0.0891, ACCGGCAG -0.244, CAGCGCGC -0.143, AACGACTC -0.0325, GCTACGAC -0.0165, CACTAATC 0.0981, AGCTGCTA 0.00834, CATTTTTA 0.0173, CACTTCTG 0.0395, CATGAGTC 0.0912, AATGAATC 0.0715, AGTACTAG 0.144, TGGAAAAA 0.0566, CGACCAAG -0.136, CTTTTGAC 0.0645, AGAACAGA 0.16, CATGCTCC 0.0916, AGTGCGGG -0.187, ATTCCAGA 0.0248, CATGGGGA -0.00204, GAGAATCA -0.0157, AGGCGCTG -0.0638, CCGACATC 0.2, GAAGTGGC -0.0447, CCTACGGA -0.166, GCCGTTTA -0.0967, CGTTTGTA 0.148, CTCTTCAG -0.0878, CTCGTCTC -0.0812, CGTTATTA 0.116, ACAAGGAC 0.305, ATCTGGTA 0.152, GTAAGTTA 0.155, CAAGCATC -0.00124, ACGTACGC 0.0155, AGACCTCC -0.206, ATGCATGG 0.0164, TATATATA 0.216, AGGGAATA 0.0498, CAAATCGG -0.00141, CAACATAA 0.295, GTGAGCAC -0.0713, CAGGTGCA -0.07, CACGATCG 0.0268, AATGGGAC 0.0228, CTTGAGGA -0.142, ATTATGAC 0.223, CGGGACCC -0.247, AGTGCAAA 0.0755, ACCCGTCA -0.0785, AGCGCCCC -0.362, CACGCTCG -0.051, CAACTGCA 0.0747

PBM E-score, ≥ 0.0482:
TATCCGCA

PBM E-score, ≥ 0.0999:
AAGGATCA

PBM E-score, ≥ -0.0796:
TGAGCTCA

PBM E-score, ≥ -0.0447:
TAGAGCCA

PBM E-score, ≥ 0.0909:
AGGTACGA

PBM E-score, active:
ATGATGTC 0.312, CATGTTCA 0.396, GATGTCAA 0.332, ATGTTCAC 0.334, AAATACAC 0.312
